52 compounds from PubChem BioAssay AID1347073 (National Center for Advancing Translational Sciences (NCATS), 2019) can be followed below.

About 200 (0.44%) of roughly 45,000 compounds were called active. About 7% were inconclusive and are not listed. Calls follow the shape of the dose curve; as a rule, active = well fitted activation curve with a large enough effect; inconclusive = small, poorly fitted or top-dose-only effect; inactive = no such curve, though single readings can be large or run the other way. This is one part of the list.
Potency is read from the fitted curve at half-maximal effect.

The assay is described as follows: qHTS of TDP-43 Inhibitors: NCGC Sytravon Library Screen. Also: nearly all actives have a fitted effect of over 55% in size. As to growth rescue (activation): 0% is about no effect. The following applies: yeast TDP-43 toxicity rescue, BacTiter-Glo growth, 24 h; series mostly up to 46.1 µM; growth rescue (activation): at the top concentration. A digest of the protocol:
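TDP-43-expressing yeast, pregrown in raffinose, seeded at OD600 0.02 in galactose medium with compound for 24 hr at 30 deg C. Growth read by BacTiter-Glo luminescence, so rescue of toxicity appears as activation.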
In general terms: In qHTS, concentration-response curves come from the screen itself.
For the compound `CCOc1ccc(S(=O)(=O)Nc2ccc(OC)nc2)cc1`, the “growth rescue (activation)” value was inactive: -3.84%. As for `CC(NC(=O)C(c1ccccc1)c1ccccc1)c1ccc(S(N)(=O)=O)cc1` (configuration not stated), the “growth rescue (activation)” value is inactive: 5.97%. Take `CN(C)CCCn1c(=S)[nH]c2sc3c(c2c1=O)CCCC3`: the “growth rescue (activation)” value is inactive: 8.43%. For `COc1cc(OC)cc(C(=O)NCC(=O)OCC(=O)Nc2ccc(C)c(S(=O)(=O)N3CCOCC3)c2)c1`, the “growth rescue (activation)” value was inactive: 26.8%.

Take `CC(NC(=O)Cn1cc(C(F)(F)F)cc(Cl)c1=O)c1ccccc1` (configuration not stated): the “growth rescue (activation)” value is inactive: -7.36%. Same read-out and setting: the result for `O=C(COC(=O)/C=C/c1cccc(C(F)(F)F)c1)NCc1ccc(F)cc1` reads inactive: 4.69%; that for `N#Cc1cc(O)c(-n2nnc3ccccc32)cc1C#N`, inactive: 17.8%. The same measure, in the same setting: the result for `CN(CC(=O)Nc1c(F)cccc1F)Cc1cccs1` reads inactive: 1.82%. For `CC1(C)C(=O)Nc2ccccc2N1C(=O)CSc1nnc2c(Cl)cc(Cl)cn12`, the “growth rescue (activation)” value is inactive: 2.12%.

`S=c1[nH]ccn1-c1cccc(Cl)c1`: the “growth rescue (activation)” value is inactive: 13%.

Turning to `CN(C)c1ccc(NC(=O)CSc2n[nH]c(-c3ccncc3)n2)cc1`, the “growth rescue (activation)” value was inactive: 3.86%. The same measure, in the same setting: as for `O=C(Cn1cnc2ccccc21)N/N=C/C(Br)=C/c1ccccc1`, the figure is inactive: 12.7%.

As for `Cc1ccc(-c2nn(C)c(=O)c3ccccc23)cc1CN1CCCCC1`, the “growth rescue (activation)” value was inactive: -4.56%.

For the compound `COc1ccc(CNS(=O)(=O)NCc2ccccc2)cc1`, the “growth rescue (activation)” value was inactive: -13.7%. For the compound `CCN(CC)P(=O)(Nc1ccc([N+](=O)[O-])cc1)c1c(C)nn(CCC#N)c1NC(=O)c1ccc(Cl)cc1` (configuration not stated), the “growth rescue (activation)” value was inactive: 4.46%. Same read-out and setting: as for `O=C(CCN1C(=O)c2ccccc2C1=O)NCc1cccc(Cl)c1`, the figure is inactive: 22.5%; as for `CCSc1nsc(NC(=O)Nc2ccccc2Cl)n1`, inactive: 8.43%; as for `CCOC(=O)C1(C)CCCCN1C(=O)c1ccc(F)c(C)c1` (configuration not stated), inactive: 11.9%. With `COc1ccc(CCCc2nnc(SCC(=O)Nc3ccc(OC)cc3)o2)cc1`, the Potency entry was “inactive”.

Turning to `Cc1onc(-c2c(F)cccc2Cl)c1C(=O)OCC(=O)N1C(C)CCCC1C` (configuration not stated), the “growth rescue (activation)” value is inactive: 11.1%. On the same count and under the same terms, the result for `CC(=O)c1c(C)[nH]c(C(=O)Nc2cccc(S(=O)(=O)N3CCOCC3)c2)c1C` reads inactive: -11.1%.

For `CCc1ccc2nc(NC(=O)CCCc3cccs3)sc2c1`, the “growth rescue (activation)” value was inactive: -3.69%.

Turning to `Cc1ccc(C(=O)COC(=O)C(C)N2C(=O)C3C4CCC(C4)C3C2=O)cc1C` (configuration not stated), the “growth rescue (activation)” value is inactive: 17%.

Consider `COCCNC(=O)c1cc(S(=O)(=O)N(C)c2ccccc2OC)ccc1C`, for which the “growth rescue (activation)” value was inactive: 27.1%.

Take `COc1ccc(CCNC(=O)c2ccc(OC)c(OC)c2)cc1OC`: the “growth rescue (activation)” value was inactive: -14.6%. Same read-out and setting: as for `CCOCCCN(C(=O)c1snc(C(N)=O)c1N)C(C(=O)NC1CCCC1)c1ccc(O)cc1` (configuration not stated), the figure is inactive: 0.135%; as for `CN(C)C(CNC(=O)c1ccc(NC(=O)CC#N)cc1)c1ccccc1` (configuration not stated), inactive: 16.3%; as for `O=C(NC1CC1)C1CCN(C2CCN(C(=O)/C=C/c3cccc(F)c3F)CC2)CC1`, inactive: 7.59%.

Regarding `CCOc1ccc(NC(=O)C2CCN(c3nnc(-n4c(C)ccc4C)s3)CC2)cc1`, the “growth rescue (activation)” value was inactive: 8.12%. Consider `O=C(CCCc1ccccc1)Nc1ccc(S(=O)(=O)N2CCOCC2)cc1`, for which the “growth rescue (activation)” value is inactive: 13.8%. Take `CN(Cc1ccc(F)cc1)C(=O)COc1ccccc1-c1ccccc1`: the Potency is active: 25.1 µM. Regarding `CC(C)(C)c1ccc(C(=O)O)c(C(=O)c2ccc(C(=O)O)cc2)c1`, the “growth rescue (activation)” value is inactive: -24.5%. On the same count and under the same terms, as for `COc1ccc(-c2n[nH]c(C)c2-c2ccccc2OC)c(O)c1`, the figure is inactive: -0.59%; as for `O=C(NCCc1c[nH]c2ccccc12)c1cccc(S(=O)(=O)Nc2ccccc2Cl)c1`, inactive: 3.12%.

`COc1ccc(-c2nc3ncccc3o2)cc1NC(=O)c1ccco1`: the “growth rescue (activation)” value was inactive: -6.84%. For `COCCNC(=O)C1Cc2c(-c3ccc(NC(C)=O)cc3)ccnc2O1` (configuration not stated), the “growth rescue (activation)” value was inactive: 15.6%. In the case of `O=C(Cc1cccs1)N/N=C/c1ccco1`, the “growth rescue (activation)” value was inactive: 3.09%.

Regarding `CCN(C(=O)COC(=O)/C=C/c1c(C)nn(-c2ccccc2)c1C)C1CCS(=O)(=O)C1` (configuration not stated), the “growth rescue (activation)” value was inactive: -1.59%. Take `O=C(NC1CCN(Cc2ccccc2)CC1)C1CCN(S(=O)(=O)c2ccccc2)CC1`: the “growth rescue (activation)” value was inactive: -8.19%. The same measure, in the same setting: as for `CC1(C(=O)NS(=O)(=O)c2cccc(Cl)c2)CCN1C(=O)CC1CCCC1` (configuration not stated), the figure is inactive: -1.63%. On the same count and under the same terms, as for `COC(=O)CNC(=O)CNC(=O)c1nn(-c2ccc(OC)c(Cl)c2)c(=O)c2ccccc12`, the figure is inactive: 6.12%. The same measure, in the same setting: the result for `COc1ccc(NC(=O)CCOc2cc(C)ccc2C)cc1S(=O)(=O)N1CCCCC1` reads inactive: 11.5%; that for `COc1cccc(OC)c1OCCCN1CCOCC1`, inactive: -6.91%; that for `O=C(NCc1ccc(Cl)cc1)c1ccc(NC(=O)C2CCCO2)cc1` (configuration not stated), inactive: 11%. Turning to `COc1cccc(C(=O)N2CCC(n3nccc3NC(=O)C(OC)c3ccccc3)CC2)c1` (configuration not stated), the “growth rescue (activation)” value is inactive: 7.52%. In the case of `CCOc1ccc(N2CC(C(=O)Nc3nnc(SCCOC)s3)CC2=O)cc1` (configuration not stated), the “growth rescue (activation)” value was inactive: 1.39%. Same read-out and setting: the result for `COc1ccccc1C(=O)Nc1sc(C(=O)N2CCCC2)c(C)c1C#N` reads inactive: 1.64%. `CSc1ccc(-c2nc(O)c3cnccn23)cc1`: the “growth rescue (activation)” value was inactive: -8.73%. As to `C=C(C)CNC(=S)N/N=C/c1c(F)cccc1F`, the “growth rescue (activation)” value is inactive: 21.1%. For the compound `Cc1ccc(OCC(=O)c2cc(C)n(Cc3ccco3)c2C)c([N+](=O)[O-])n1`, the “growth rescue (activation)” value is inactive: 10.8%. The same measure, in the same setting: the result for `COc1ccccc1OCCNC(=O)c1cc(F)c(F)cc1Cl` reads inactive: 16.4%. For `COc1ccc(N2CCN(c3ncnc4scc(-c5ccc(C)cc5)c34)CC2)cc1`, the “growth rescue (activation)” value is inactive: -0.631%.
